Assay results from patent publication US6077680A (The University of Florida, dated 2000).
For part of these data: Not every detail of the peptide structures is certain; ends, links or a residue may be inferred. For part of these data: At least one compound was matched to its structure with a doubt left.

Tests used:
[1] = system: rat brain membrane K channels (primarily Kv1.2); format: binding; conditions: for IC50: read-out: IC50 Rat Brain 125I-CTX
[2] = molecular target: Kv1.3 potassium channels in Jurkat T lymphocytes (Homo sapiens, UniProt P22001); format: cell-based
[3] = molecular target: Kv1.3 channels in Jurkat T lymphocytes (Homo sapiens, UniProt P22001); format: binding; conditions: read-out: IC50 Lymphocyte 125I-CTX
Kv1.3 = Kv1.3 (Mus musculus, UniProt P16390); format: cell-based
Chain of Kv1.3 (P16390 whole entry): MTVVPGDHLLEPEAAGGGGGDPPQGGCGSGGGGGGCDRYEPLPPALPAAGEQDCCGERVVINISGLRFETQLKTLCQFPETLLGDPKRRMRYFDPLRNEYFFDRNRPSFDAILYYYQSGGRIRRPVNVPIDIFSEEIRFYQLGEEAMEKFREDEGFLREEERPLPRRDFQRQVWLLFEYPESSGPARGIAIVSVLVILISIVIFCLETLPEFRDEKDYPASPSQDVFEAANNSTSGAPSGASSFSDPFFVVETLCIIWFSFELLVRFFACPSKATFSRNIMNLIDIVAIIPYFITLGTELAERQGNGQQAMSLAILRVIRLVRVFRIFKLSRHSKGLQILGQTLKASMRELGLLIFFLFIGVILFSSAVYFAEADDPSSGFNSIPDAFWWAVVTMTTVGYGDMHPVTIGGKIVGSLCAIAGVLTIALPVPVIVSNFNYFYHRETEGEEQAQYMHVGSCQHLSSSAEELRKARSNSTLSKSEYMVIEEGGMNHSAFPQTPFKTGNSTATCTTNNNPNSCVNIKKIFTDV

Chain of Kv1.3 potassium channels in Jurkat T lymphocytes (P22001 whole entry): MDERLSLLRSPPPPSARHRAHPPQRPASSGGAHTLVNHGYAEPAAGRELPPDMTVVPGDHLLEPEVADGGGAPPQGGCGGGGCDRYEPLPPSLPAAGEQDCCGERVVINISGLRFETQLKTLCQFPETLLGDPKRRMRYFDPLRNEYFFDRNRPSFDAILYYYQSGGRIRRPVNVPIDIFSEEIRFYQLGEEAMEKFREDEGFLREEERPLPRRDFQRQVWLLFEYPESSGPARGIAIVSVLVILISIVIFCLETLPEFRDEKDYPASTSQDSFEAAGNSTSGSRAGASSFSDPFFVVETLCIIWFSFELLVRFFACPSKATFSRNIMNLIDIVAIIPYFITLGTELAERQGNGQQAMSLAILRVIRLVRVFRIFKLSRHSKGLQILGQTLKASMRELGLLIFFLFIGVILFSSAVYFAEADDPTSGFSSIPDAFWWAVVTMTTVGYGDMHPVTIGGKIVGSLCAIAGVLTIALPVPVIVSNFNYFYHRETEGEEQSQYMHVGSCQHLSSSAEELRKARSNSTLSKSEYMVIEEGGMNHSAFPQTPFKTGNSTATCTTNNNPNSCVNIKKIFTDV
Chain of Kv1.3 channels in Jurkat T lymphocytes (P22001 whole entry): as above

## CC[C@H](C)[C@@H]1NC(=O)[C@@H](NC(=O)[C@H](CO)NC(=O)[C@@H](N)CO)CSSC[C@@H](C(=O)O)NC(=O)[C@H]([C@@H](C)O)NC(=O)CNC(=O)[C@@H]2CSSC[C@@H]3NC(=O)[C@H](CCC(N)=O)NC(=O)[C@H](Cc4ccccc4)NC(=O)[C@H](C)NC(=O)[C@H]([C@@H](C)O)NC(=O)[C@H](CSSC[C@H](NC(=O)[C@H](Cc4ccccc4)NC(=O)[C@H](CO)NC(=O)[C@H](CC(C)C)NC(=O)[C@H](CCCNC(=N)N)NC(=O)[C@H](Cc4ccc(O)cc4)NC(=O)[C@H](CCCCN)NC(=O)[C@H](CCSC)NC(=O)[C@H](CO)NC(=O)[C@H](Cc4c[nH]cn4)NC(=O)[C@H](CCCCN)NC3=O)C(=O)N[C@@H](CCCNC(=N)N)C(=O)N[C@@H](CCCCN)C(=O)N[C@@H]([C@@H](C)O)C(=O)N2)NC(=O)[C@H](CCCNC(=N)N)NC(=O)[C@H](CO)NC(=O)[C@H](CCCCN)NC(=O)[C@@H]2CCCN2C(=O)[C@H]([C@@H](C)CC)NC(=O)[C@H]([C@@H](C)O)NC(=O)[C@H](CC(=O)O)NC1=O [R1S]
[1]
  Equipotent Molar Ration (Analog IC50 /ShK IC50) Rat brain: 1.5
  effect on binding to either K channel subtype: no significant affect on binding
  IC50: 16 nM
[2]
  Equipotent Molar Ration (Analog IC50 /ShK IC50) Lymphocyte: 0.92

## CC[C@H](C)[C@@H]1NC(=O)[C@@H](NC(=O)[C@H](CO)NC(=O)[C@@H](N)CCCNC(=N)N)CSSC[C@@H](C(=O)O)NC(=O)[C@H]([C@@H](C)O)NC(=O)CNC(=O)[C@@H]2CSSC[C@@H]3NC(=O)[C@H](CCC(N)=O)NC(=O)[C@H](Cc4ccccc4)NC(=O)[C@H](C)NC(=O)[C@H]([C@@H](C)O)NC(=O)[C@H](CSSC[C@H](NC(=O)[C@H](Cc4ccccc4)NC(=O)[C@H](CO)NC(=O)[C@H](CC(C)C)NC(=O)[C@H](CCCNC(=N)N)NC(=O)[C@H](CO)NC(=O)[C@H](CCCCN)NC(=O)[C@H](CCSC)NC(=O)[C@H](CO)NC(=O)[C@H](Cc4c[nH]cn4)NC(=O)[C@H](CCCCN)NC3=O)C(=O)N[C@@H](CCCNC(=N)N)C(=O)N[C@@H](CCCCN)C(=O)N[C@@H]([C@@H](C)O)C(=O)N2)NC(=O)[C@H](CCCNC(=N)N)NC(=O)[C@H](CO)NC(=O)[C@H](CCCCN)NC(=O)[C@@H]2CCCN2C(=O)[C@H]([C@@H](C)CC)NC(=O)[C@H]([C@@H](C)O)NC(=O)[C@H](CC(=O)O)NC1=O [Y23S]
[3]
  IC50: > 5 nM
Kv1.3
  Kd: 150 nM

## CC[C@H](C)[C@@H]1NC(=O)[C@@H](NC(=O)[C@H](CO)NC(=O)[C@@H](N)CCCNC(=N)N)CSSC[C@@H](C(=O)O)NC(=O)[C@H]([C@@H](C)O)NC(=O)CNC(=O)[C@@H]2CSSC[C@@H]3NC(=O)[C@H](CCC(N)=O)NC(=O)[C@H](Cc4ccccc4)NC(=O)[C@H](C)NC(=O)[C@H]([C@@H](C)O)NC(=O)[C@H](CSSC[C@H](NC(=O)[C@H](Cc4ccccc4)NC(=O)[C@H](CO)NC(=O)[C@H](CC(C)C)NC(=O)[C@H](CCCNC(=N)N)NC(=O)[C@H](Cc4ccc(O)cc4)NC(=O)[C@H](CCCNC(=N)N)NC(=O)[C@H](CCSC)NC(=O)[C@H](CO)NC(=O)[C@H](Cc4cnc[nH]4)NC(=O)[C@H](CCCCN)NC3=O)C(=O)N[C@@H](CCCNC(=N)N)C(=O)N[C@@H](CCCCN)C(=O)N[C@@H]([C@@H](C)O)C(=O)N2)NC(=O)[C@H](CCCNC(=N)N)NC(=O)[C@H](CO)NC(=O)[C@H](CCCCN)NC(=O)[C@@H]2CCCN2C(=O)[C@H]([C@@H](C)CC)NC(=O)[C@H]([C@@H](C)O)NC(=O)[C@H](CC(=O)O)NC1=O [K22R]
Kv1.3
  Kd: 6.6 ± 0.8 nM

## CC[C@H](C)[C@@H]1NC(=O)[C@@H](NC(=O)[C@H](CO)NC(=O)[C@@H](N)CCCNC(=N)N)CSSC[C@@H](C(=O)O)NC(=O)[C@H]([C@@H](C)O)NC(=O)CNC(=O)[C@@H]2CSSC[C@@H]3NC(=O)[C@H](CCC(N)=O)NC(=O)[C@H](Cc4ccccc4)NC(=O)[C@H](C)NC(=O)[C@H]([C@@H](C)O)NC(=O)[C@H](CSSC[C@H](NC(=O)[C@H](Cc4ccccc4)NC(=O)[C@H](CO)NC(=O)[C@H](CC(C)C)NC(=O)[C@H](CCCNC(=N)N)NC(=O)[C@H](Cc4ccc(O)cc4)NC(=O)[C@H](CCCCN)NC(=O)[C@H](CCSC)NC(=O)[C@H](CO)NC(=O)[C@H](Cc4c[nH]cn4)NC(=O)[C@H](CCC(=O)O)NC3=O)C(=O)N[C@@H](CCCNC(=N)N)C(=O)N[C@@H](CCCCN)C(=O)N[C@@H]([C@@H](C)O)C(=O)N2)NC(=O)[C@H](CCCNC(=N)N)NC(=O)[C@H](CO)NC(=O)[C@H](CCCCN)NC(=O)[C@@H]2CCCN2C(=O)[C@H]([C@@H](C)CC)NC(=O)[C@H]([C@@H](C)O)NC(=O)[C@H](CC(=O)O)NC1=O [compound 103]
[1]
  Analog IC50 /ShK IC50: 4.64

## CC[C@H](C)[C@@H]1NC(=O)[C@@H](NC(=O)[C@H](CO)NC(=O)[C@@H](N)CCCNC(=N)N)CSSC[C@@H](C(=O)O)NC(=O)[C@H]([C@@H](C)O)NC(=O)CNC(=O)[C@@H]2CSSC[C@@H]3NC(=O)[C@H](CCC(N)=O)NC(=O)[C@H](Cc4ccccc4)NC(=O)[C@H](C)NC(=O)[C@H]([C@@H](C)O)NC(=O)[C@H](CSSC[C@H](NC(=O)[C@H](Cc4ccccc4)NC(=O)[C@H](CO)NC(=O)[C@H](CC(C)C)NC(=O)[C@H](C)NC(=O)[C@H](Cc4ccc(O)cc4)NC(=O)[C@H](CCCCN)NC(=O)[C@H](CCSC)NC(=O)[C@H](CO)NC(=O)[C@H](Cc4c[nH]cn4)NC(=O)[C@H](CCCCN)NC3=O)C(=O)N[C@@H](CCCNC(=N)N)C(=O)N[C@@H](CCCCN)C(=O)N[C@@H]([C@@H](C)O)C(=O)N2)NC(=O)[C@H](CCCNC(=N)N)NC(=O)[C@H](CO)NC(=O)[C@H](CCCCN)NC(=O)[C@@H]2CCCN2C(=O)[C@H]([C@@H](C)CC)NC(=O)[C@H]([C@@H](C)O)NC(=O)[C@H](CC(=O)O)NC1=O [R24A]
[1]
  Difference of Free Energy of Binding: 0.51
  Equipotent Molar Ration (Analog IC50 /ShK IC50) Rat brain: 1.3
  IC50 Ratio: 2.4
  effect on binding to either K channel subtype: no significant affect on binding
  IC50: 10 nM

## CC[C@H](C)[C@@H]1NC(=O)[C@@H](NC(=O)[C@H](CO)NC(=O)[C@@H](N)CCCNC(=N)N)CSSC[C@@H](C(=O)O)NC(=O)[C@H]([C@@H](C)O)NC(=O)CNC(=O)[C@@H]2CSSC[C@@H]3NC(=O)[C@H](C)NC(=O)[C@H](Cc4ccccc4)NC(=O)[C@H](C)NC(=O)[C@H]([C@@H](C)O)NC(=O)[C@H](CSSC[C@H](NC(=O)[C@H](Cc4ccccc4)NC(=O)[C@H](CO)NC(=O)[C@H](CC(C)C)NC(=O)[C@H](CCCNC(=N)N)NC(=O)[C@H](Cc4ccc(O)cc4)NC(=O)[C@H](CCCCN)NC(=O)[C@H](CCSC)NC(=O)[C@H](CO)NC(=O)[C@H](Cc4c[nH]cn4)NC(=O)[C@H](CCCCN)NC3=O)C(=O)N[C@@H](CCCNC(=N)N)C(=O)N[C@@H](CCCCN)C(=O)N[C@@H]([C@@H](C)O)C(=O)N2)NC(=O)[C@H](CCCNC(=N)N)NC(=O)[C@H](CO)NC(=O)[C@H](CCCCN)NC(=O)[C@@H]2CCCN2C(=O)[C@H]([C@@H](C)CC)NC(=O)[C@H]([C@@H](C)O)NC(=O)[C@H](CC(=O)O)NC1=O [Q16A]
[1]
  Difference of Free Energy of Binding: 0.0
  IC50 Ratio: 1.0

## CC[C@H](C)[C@@H]1NC(=O)[C@@H](NC(=O)[C@H](CO)NC(=O)[C@@H](N)CCCNC(=N)N)CSSC[C@@H](C(=O)O)NC(=O)[C@H]([C@@H](C)O)NC(=O)CNC(=O)[C@@H]2CSSC[C@@H]3NC(=O)[C@H](CCC(N)=O)NC(=O)[C@H](Cc4ccccc4)NC(=O)[C@H](C)NC(=O)[C@H]([C@@H](C)O)NC(=O)[C@H](CSSC[C@H](NC(=O)[C@H](C)NC(=O)[C@H](CO)NC(=O)[C@H](CC(C)C)NC(=O)[C@H](CCCNC(=N)N)NC(=O)[C@H](Cc4ccc(O)cc4)NC(=O)[C@H](CCCCN)NC(=O)[C@H](CCSC)NC(=O)[C@H](CO)NC(=O)[C@H](Cc4c[nH]cn4)NC(=O)[C@H](CCCCN)NC3=O)C(=O)N[C@@H](CCCNC(=N)N)C(=O)N[C@@H](CCCCN)C(=O)N[C@@H]([C@@H](C)O)C(=O)N2)NC(=O)[C@H](CCCNC(=N)N)NC(=O)[C@H](CO)NC(=O)[C@H](CCCCN)NC(=O)[C@@H]2CCCN2C(=O)[C@H]([C@@H](C)CC)NC(=O)[C@H]([C@@H](C)O)NC(=O)[C@H](CC(=O)O)NC1=O [F27A]
[1]
  Difference of Free Energy of Binding: 1.59
  IC50 Ratio: 15.3
  increase in relative free energy of binding: ~1.6 kcal/mol

## CC[C@H](C)[C@@H]1NC(=O)[C@@H](NC(=O)[C@H](CO)NC(=O)[C@@H](N)CCCNC(=N)N)CSSC[C@@H](C(=O)O)NC(=O)[C@H]([C@@H](C)O)NC(=O)CNC(=O)[C@@H]2CSSC[C@@H]3NC(=O)[C@H](CCC(N)=O)NC(=O)[C@H](Cc4ccccc4)NC(=O)[C@H](C)NC(=O)[C@H]([C@@H](C)O)NC(=O)[C@H](CSSC[C@H](NC(=O)[C@H](Cc4ccccc4)NC(=O)[C@H](CO)NC(=O)[C@H](CC(C)C)NC(=O)[C@H](CCCNC(=N)N)NC(=O)[C@H](CC4CCCCC4)NC(=O)[C@H](CCCCN)NC(=O)[C@H](CCSC)NC(=O)[C@H](CO)NC(=O)[C@H](Cc4c[nH]cn4)NC(=O)[C@H](CCCCN)NC3=O)C(=O)N[C@@H](CCCNC(=N)N)C(=O)N[C@@H](CCCCN)C(=O)N[C@@H]([C@@H](C)O)C(=O)N2)NC(=O)[C@H](CCCNC(=N)N)NC(=O)[C@H](CO)NC(=O)[C@H](CCCCN)NC(=O)[C@@H]2CCCN2C(=O)[C@H]([C@@H](C)CC)NC(=O)[C@H]([C@@H](C)O)NC(=O)[C@H](CC(=O)O)NC1=O [Y23Cha]
[1]
  Equipotent Molar Ratio (Analog IC50 /ShK IC50): 8.8
  Free Energy Differ. of Binding ΔF: 1.27
  IC50 Ratio: 8.8
  binding affinity for rat brain K channels relative to wild-type ShK toxin, in words: more than an eight fold reduction in potency
  decrease in affinity for rat brain channels relative to ShK toxin: > 8 fold
  ΔF: 1.27
